# Assay results taken from publication PMC7242078.
# No constants are given. Whether binding was seen depends on the method and setting. For part of these data: In cells and extracts the contact can be indirect. Some results given as binding are weak or reduced against the parent protein; the word gives no strength. For part of these data: Sequences can lack the tags named with a protein.
# T1: CBL-interacting protein kinase 8 (pGBKT7-CIPK8) (Arabidopsis) (UniProt Q9STV4)
# T1 sequence: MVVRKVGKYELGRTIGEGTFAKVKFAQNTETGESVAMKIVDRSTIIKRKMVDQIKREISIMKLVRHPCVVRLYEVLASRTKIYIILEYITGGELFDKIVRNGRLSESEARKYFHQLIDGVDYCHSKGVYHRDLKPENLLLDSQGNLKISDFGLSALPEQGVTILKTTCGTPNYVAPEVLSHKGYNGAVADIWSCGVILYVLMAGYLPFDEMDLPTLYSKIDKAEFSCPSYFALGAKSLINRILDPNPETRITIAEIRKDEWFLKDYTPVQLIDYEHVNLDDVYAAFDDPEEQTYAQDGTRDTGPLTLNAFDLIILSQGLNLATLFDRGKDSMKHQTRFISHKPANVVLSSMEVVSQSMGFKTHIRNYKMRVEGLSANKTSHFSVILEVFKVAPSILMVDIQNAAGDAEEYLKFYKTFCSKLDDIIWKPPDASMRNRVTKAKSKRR
# T2: CIPK8 luciferase-fragment fusion (pCAMBIA1300-cLUC, primers CIPK8-cLUC-F/R) (Arabidopsis) (UniProt Q9STV4)
# T2 sequence: T1 sequence
# B1: Calcineurin B-like protein 5 (pGADT7-CBL5) (protein, UniProt Q7FZF1 1-203)
# chain: MGCVCSKQLEGRRQEDISLLASQTFFSEAEVEVLHGLFIKLTSCLSNDNLLTKEKFQFILIKNTKKRSLSAERIFGLFDMRNDGAIDFGEFVHTLNIFHPNSSPRDKAIFAFRLYDTRETGFIEPEEVKEMIIDVLEESELMLSESIIDSIVSKTFEEADWKKDGIIDLEEWENFVATYPLTLKNMTIPFLKDIPRIFPTFLR
# B2: CBL5 in the Split-LUC assay (protein, UniProt Q7FZF1 1-203)
# chain: B1 chain
# B3: Calcineurin B-like protein 8 (pGADT7-CBL8) (protein, UniProt Q9FUQ7 1-214)
# chain: MLAFVKCFSLKRAKHPRGYEDPHVLASETPFTVNEIEALHDLFKKLSTSIINDGLIHKEEFLLALFRNGSMQNLFADRVFYMFDRKRNGVIEFGEFVRSLSIFHPYTPEHEKSAFMFKLFDLHGTGFIEPHELKKMVGALLGETDLELSEESIEAIVEQTMLEVDTNKDGKIDEEEWKELVAKNPSILKNMTLPYLKEVTLAFPSFVLDSEVED
# Tests used:
# [1] = target: T1, CBL-interacting protein kinase 8 (pGBKT7-CIPK8) (Arabidopsis); assay: two-hybrid; MatchMaker yeast two-hybrid system (Clontech), Y2HGold yeast co-transformed with pGBKT7-CIPK8 and pGADT7-CBLs; growth on QDO/X/A (lacking Leu, Ade, His and Trp, with 40 ug/ml X-alpha-Gal and 125 ng/ml aureobasidin A)
# [2] = target: T2, CIPK8 luciferase-fragment fusion (pCAMBIA1300-cLUC, primers CIPK8-cLUC-F/R) (Arabidopsis); assay: split reporter; Split-LUC in tobacco leaf cells; data not shown
Binder,binding [1],binding [2]
B1,binds,–
B2,–,binds
B3,no binding,–
